In all, about 33,000 sequences were measured (“E-score (-0.5 to 0.5)”: median about -0.041, highest 2% from about 0.37 on). The list shows a part of the results.
molecular target: T1, Ecm22 (UniProt Q05958); assay: PBM E-score (8-mer binding enrichment) (E-score (-0.5 to 0.5)); higher = stronger / more preferred TF binding; most listed sequences are background and not binding sites; conditions: protein concentration: 200 nM; construct: GST-full length
T1 sequence: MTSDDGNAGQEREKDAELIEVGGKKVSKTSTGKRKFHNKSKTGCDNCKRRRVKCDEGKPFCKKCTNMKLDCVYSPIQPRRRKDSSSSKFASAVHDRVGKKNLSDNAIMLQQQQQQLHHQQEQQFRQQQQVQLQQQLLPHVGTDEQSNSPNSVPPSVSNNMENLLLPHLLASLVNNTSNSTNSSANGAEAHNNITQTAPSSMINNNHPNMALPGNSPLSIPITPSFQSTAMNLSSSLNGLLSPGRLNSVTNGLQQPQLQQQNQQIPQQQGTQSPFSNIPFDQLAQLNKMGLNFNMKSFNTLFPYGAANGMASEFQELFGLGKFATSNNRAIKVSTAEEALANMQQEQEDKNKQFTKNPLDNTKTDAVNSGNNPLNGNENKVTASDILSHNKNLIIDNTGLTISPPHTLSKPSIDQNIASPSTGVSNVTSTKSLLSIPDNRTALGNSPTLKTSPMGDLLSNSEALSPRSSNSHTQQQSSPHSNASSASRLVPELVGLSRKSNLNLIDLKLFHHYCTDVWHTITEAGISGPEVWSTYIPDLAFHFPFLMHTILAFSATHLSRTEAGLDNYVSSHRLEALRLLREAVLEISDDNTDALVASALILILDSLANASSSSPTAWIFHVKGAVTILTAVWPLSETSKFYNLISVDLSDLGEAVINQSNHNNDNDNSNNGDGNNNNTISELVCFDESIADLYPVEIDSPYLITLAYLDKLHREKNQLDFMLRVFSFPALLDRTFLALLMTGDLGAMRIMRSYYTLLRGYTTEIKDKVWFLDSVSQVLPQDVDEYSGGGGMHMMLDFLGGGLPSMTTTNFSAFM
Method: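 Universal 'all 10-mer' protein binding microarrays (Agilent AMADID 015681) probed with GST-tagged S. cerevisiae TFs (full-length or DBD) made by in vitro transcription/translation (PURExpress), about 100-200 nM. Bound TF was detected with fluorescent anti-GST. Each ungapped 8-mer (which stands for itself and its reverse complement) is scored by the PBM enrichment score (E-score), a modified Wilcoxon-Mann-Whitney statistic from -0.5 to +0.5, computed with the Universal PBM Analysis Suite. Scale: above 0.35 generally sequence-specific binding.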

| Sequence | PBM E-score |
| --- | --- |
| CCACGTTA | 0.0599 |
| ATAGGACA | 0.0635 |
| ACTATCCA | -0.0129 |
| CGCGCAAC | 0.0984 |
| ATGGACCA | 0.0442 |
| CGGCGGAA | 0.0461 |
| AATCTAAT | -0.0563 |
| GTGTGTTA | 0.00165 |
| ATCCGTGC | -0.0378 |
| GAGGACCA | -0.0372 |
| CATAGGAA | -0.0367 |
| GGCTATGA | -0.21 |
| TATTTGGA | -0.146 |
| CCCAGACA | -0.0677 |
| CCACGAGA | -0.117 |
| AGTCCTCC | -0.137 |
| GCACTGAC | -0.0399 |
| GCCCTGGA | -0.111 |
| CCCGATGC | -0.0981 |
| ACACAAAC | 0.0625 |
| ACACCAGT | -0.156 |
| AGAACCCA | -0.131 |
| AGGCTCGC | 0.208 |
| AACGTAAT | 0.0154 |
| CGAAGGAA | 0.199 |

| Sequence | PBM E-score |
| --- | --- |
| ATCGGAGC | 0.0642 |
| ATAAGGGA | -0.0565 |
| GAGGGACA | 0.0905 |
| ATGTTAAT | 0.0381 |
| ATTCTAAA | 0.095 |
| CCATTGAC | -0.0157 |
| AGATTAAA | -0.0693 |
| CCAGCCGC | 0.128 |
| AGAGTACG | 0.257 |
| TCCGTTCA | 0.264 |
| GTAGTATA | 0.213 |
| AAATGGCA | -0.00674 |
| AAGGCTTA | -0.0548 |
| CATGCTCG | 0.0753 |
| CAAAGGGC | -0.286 |
| ATGGGACG | -0.0744 |
| CCGCAGCA | -0.152 |
| ATTACCTG | -0.0898 |
| CTTTTAAA | 0.0526 |
| AAGGCCGT | 0.224 |
| AGGCGCCG | 0.0406 |
| AGTGTTAC | 0.062 |
| ACCGCATG | -0.072 |
| ACGCTTGA | -0.0655 |
| CATGCGCC | -0.145 |

| Sequence | PBM E-score |
| --- | --- |
| AATTGCAA | 0.0197 |
| CCCAGCGC | -0.0801 |
| ATGACGTC | 0.0822 |
| AATTGATG | 0.0998 |
| AACAGGTT | -0.0421 |
| CAATCAGC | -0.158 |
| AGTTCATG | -0.0381 |
| ACTGCCAA | 0.0137 |
| AGTTGATC | 0.131 |
| AGGAGAAT | 0.0698 |
| AGAATATC | -0.051 |
| ACGAACGA | 0.447 |
| AAGGTCTC | -0.14 |
| ATCTAAAC | 0.113 |
| GCAACGAA | 0.406 |
| TTCGCAAA | 0.291 |
| AACCCCTG | -0.151 |
| AGACGTGA | -0.0624 |
| ATCAATGG | -0.242 |
| CGTCATGC | -0.0684 |
| AACTGAGC | 0.0143 |
| CCGATAGG | -0.0184 |
| GTTTGTGA | -0.0355 |
| AGACATGG | 0.00126 |
| ATTTCAAA | -0.169 |

| Sequence | PBM E-score |
| --- | --- |
| AATAGCTG | -0.194 |
| CACGCGCA | -0.0323 |
| CCTCCGCC | -0.24 |
| GGTGGGAA | 0.0319 |
| ATCCTTGA | -0.0912 |
| CGAGATGC | 0.158 |
| GGGACCCA | -0.0963 |
| ACCCTCAA | -0.203 |
| ATATCAGG | -0.174 |
| AATTTCCG | 0.247 |
| TACTGTAA | 0.119 |
| CGCCATGA | -0.217 |
| ATTGTCTC | -0.0281 |
| TGAAACCA | -0.175 |
| CTATAGTA | -0.0956 |
| AGTAGGCG | -0.00833 |
| CAACTCGA | -0.0476 |
| ACGACTGA | 0.283 |
| CGGTGGAG | 0.156 |
| CTCAAGCC | -0.099 |
| CGGCCGAA | -0.0209 |
| GAGAGAGC | 0.068 |
| AGCCTTAT | -0.0126 |
| GACGGACA | 0.0517 |
| GGGATCAA | -0.128 |

| Sequence | PBM E-score |
| --- | --- |
| AAGTAATT | -0.0507 |
| AGGCCGTG | -0.255 |
| ATTATTTC | 0.104 |
| CCTCCCAG | -0.239 |
| CACAACGC | -0.0388 |
| AGTAGCTA | -0.0708 |
| CTATCCAG | -0.218 |
| GAATGCGA | 0.24 |
| AGCATACA | -0.0251 |
| GTTTCGGA | 0.215 |
| GGTAGCAC | -0.275 |
| CGACACTA | 0.0746 |
| AGAACAAC | -0.0888 |
| CATTTATA | -0.00296 |
| GCCGTGGA | -0.0482 |
| AAGCCCTT | -0.253 |
| CATACCCA | -0.188 |
| AGGGGACG | -0.24 |
| CTGGTTCA | -0.179 |
| GTGTACGA | 0.481 |
| ACAAGCAC | -0.11 |
| AAAAAGTG | -0.0144 |
| CCGGTCGC | 0.209 |
| ATAGTGAT | 0.176 |
| CCTGAAAA | -0.0855 |

| Sequence | PBM E-score |
| --- | --- |
| GCCCAGAC | -0.248 |
| AATAAGTA | 0.0089 |
| AGTCCAAC | -0.27 |
| GGGGTTCA | -0.242 |
| ATCTTTCA | -0.0605 |
| AGTCTTGC | -0.122 |
| AGATTTGA | -0.0348 |
| GCGCCCTA | -0.00313 |
| TAGAAAGA | -0.22 |
| AATAGGAG | -0.144 |
| GACGCAGC | -0.096 |
| ACTAGGAG | -0.352 |
| AGAAGCGC | -0.0279 |
| AATTGAAG | -0.185 |
| ACTCTTAC | 0.0982 |
| AAGTGTAG | -0.214 |
| CGGTCCGA | 0.294 |
| ATTACGAC | 0.367 |
| GAGTCCCA | -0.123 |
| AAACTTAA | -0.0485 |
| CCCGTTCC | 0.447 |
| AGTTAGGG | -0.182 |
| AATCTTCC | -0.0465 |
| GAGATTCC | -0.00657 |
| AGAAGTCT | -0.299 |

| Sequence | PBM E-score |
| --- | --- |
| ATGTTAGG | -0.0839 |
| AGAACACC | -0.119 |
| CTACATTA | 0.0115 |
| CACAAACA | -0.108 |
| ATCTAATG | -0.0391 |
| CCATTAGA | -0.282 |
| ACACAAGA | -0.237 |
| AGACCGGG | -0.0833 |
| CTCGAATC | -0.0398 |
| CCCGGGCA | -0.155 |
| CATGTCCG | -0.0838 |
| AGCGCTAG | -0.143 |
| CTACCTCA | -0.073 |
| ACGCAAGG | -0.01 |
| CACACGCG | 0.0349 |
| CCTTCAGA | -0.134 |
| CCGGACGA | -0.111 |
| ATAACAGA | -0.0651 |
| AACAAAAC | -0.0234 |
| ACCGACTG | 0.142 |
| CACCGGTC | -0.174 |
| AGGGTTGA | -0.0283 |
